Laboratory results: the supplement of paper PMC3724861
The other results are listed elsewhere or left out.

These sequences were tested on T1, Caupolican (Caup) homeodomain DNA-binding domain (assay: PBM E-score (8-mer, recovered from the published 9-mer minima) (E-score (dimensionless, -0.5 to 0.5)); Drosophila protein; higher = stronger relative binding preference, active = 0.31 or more).
T1 sequence: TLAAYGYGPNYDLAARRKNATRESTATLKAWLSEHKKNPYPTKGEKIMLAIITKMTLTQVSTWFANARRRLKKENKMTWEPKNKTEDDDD
Outline: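 Caup's homeodomain DNA-binding domain (residues 214-303) was made by in vitro transcription and translation and applied at 100 nM to custom-designed protein binding microarrays. Each value is an enrichment score that gives relative binding preference for a short DNA word, with higher meaning stronger. The 8-mer values were recovered from published 9-mer scores, each of which was the minimum of its two constituent 8-mer scores. A cutoff of 0.31 marks candidate sites.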

Row | Sequence | PBM E-score
1 | ACTACTCT | inactive: 0.0627
2 | ACTGGACA | inactive: 0.159
3 | ACGTGACA | inactive: 0.265
4 | AATGTATA | inactive: 0.271
5 | GCATGGAA | inactive: -0.00398
6 | CAGCGTTC | inactive: -0.12
7 | AATAGGAC | inactive: 0.0898
8 | AATCGTAC | inactive: 0.0812
9 | ATAGTATA | inactive: 0.192
10 | GCAATAAC | inactive: 0.0387
11 | GACCGACA | inactive: 0.0747
12 | GCTTTATA | inactive: 0.0362
13 | GAATCGAA | ≥ 0.134
14 | ACTCAATA | inactive: 0.109
15 | CATGTACG | active: 0.409
16 | CTTCAAAA | inactive: 0.0461
17 | CAGTCAGC | inactive: -0.165
18 | AAAATGGA | ≥ 0.145
19 | ACACCTCG | inactive: 0.0742
20 | GAGGACGA | inactive: -0.00296
21 | CTCCCTGC | inactive: -0.235
22 | ATTGCACG | inactive: 0.114
23 | CTCTCTCC | inactive: -0.217
24 | CGGTCGAG | inactive: -0.229
25 | GTGCGAGA | inactive: -0.0224

Row | Sequence | PBM E-score
26 | CGAAGAAC | inactive: 0.0582
27 | AGTCTCTA | inactive: 0.0146
28 | CCGGTAGC | inactive: -0.1
29 | CTCAGTTA | inactive: -0.0261
30 | GCAGGAAA | inactive: -0.0235
31 | TGATGAAA | inactive: 0.0756
32 | TCATTGGA | inactive: -0.0276
33 | CTCATTAA | inactive: 0.0612
34 | CCATTGCG | inactive: -0.158
35 | CCCTATGA | inactive: -0.191
36 | TGAGTACA | inactive: 0.265
37 | ATAAGCAA | inactive: 0.12
38 | ATGCGGTG | inactive: -0.0604
39 | GAACCATA | inactive: -0.0301
40 | CCTTGAAA | inactive: -0.00531
41 | TGAGACAA | inactive: 0.153
42 | AAGGCACT | inactive: -0.108
43 | CCTTAAAA | inactive: 0.0119
44 | ATCCATAG | inactive: 0.0531
45 | CCAGTATA | inactive: 0.0207
46 | ATCAAGCA | inactive: 0.0636
47 | CTGCGGTC | inactive: -0.18
48 | TATGACGA | inactive: 0.116
49 | AGTCTATG | inactive: -0.0427
50 | GCTCATAC | inactive: -0.0431

Row | Sequence | PBM E-score
51 | ATGAAGAA | ≥ 0.1
52 | GAAAGCCC | inactive: -0.118
53 | AACGTGGT | inactive: 0.123
54 | GATCCACC | inactive: -0.118
55 | AGAGCCCA | inactive: -0.108
56 | GAATTCTC | inactive: 0.0234
57 | ATACTGGC | inactive: -0.0488
58 | CCGATTCC | inactive: -0.0905
59 | AGGTGCAG | inactive: -0.103
60 | CCATCGGG | inactive: -0.122
61 | AGTTGTGC | inactive: 0.0219
62 | GGCTGGTA | inactive: -0.0176
63 | ATTGTTAC | inactive: 0.307
64 | TAAGGAAA | inactive: 0.0604
65 | CGGTTCGA | inactive: -0.103
66 | AGAGCCGG | inactive: -0.203
67 | ATTATCTC | inactive: 0.0726
68 | CTGGCAAG | inactive: -0.0669
69 | CAGTAGAG | inactive: -0.0182
70 | AGCTTATG | inactive: 0.0779
71 | ACGTCTGC | inactive: -0.123
72 | ACAAGTTA | active: 0.325
73 | AAAAGACG | inactive: -0.0121
74 | ACGCCGAG | inactive: -0.176
75 | AGCTCGCG | inactive: -0.138

Row | Sequence | PBM E-score
76 | CACGACCG | inactive: -0.0298
77 | AGGACGCG | inactive: -0.0824
78 | GGTGCAAC | inactive: -0.038
79 | GAGTCGGA | inactive: -0.0728
80 | CGTGGGTC | inactive: -0.137
81 | AGAGGGAC | inactive: -0.137
82 | ATGTTTCC | inactive: 0.236
83 | AAACTCAA | inactive: 0.0724
84 | CGAAGCGA | inactive: -0.135
85 | ACAGCAGT | inactive: 0.0288
86 | CGGGCGGC | inactive: -0.3
87 | GGCGCAAA | inactive: -0.126
88 | AGCCCAAA | ≥ -0.0354
89 | CCCGCCAA | inactive: -0.216
90 | GCCAGAGC | inactive: -0.225
91 | AACCCGAC | inactive: -0.0155
92 | CAATCTCC | inactive: -0.0317
93 | CCTGGTGA | inactive: -0.102
94 | AAGTGACT | inactive: 0.0564
95 | AAAGTGAA | inactive: 0.0917
96 | GAGTATAA | inactive: 0.0623
97 | TCCCTAAA | inactive: 0.014
98 | AGACGGAA | inactive: -0.024
99 | ACGAATTA | inactive: 0.0439
100 | AACGGTTG | inactive: 0.125

Row | Sequence | PBM E-score
101 | ACTCCACA | inactive: 0.0339
102 | ATTCGGGC | inactive: -0.1
103 | CTACTCAC | inactive: 0.0344
104 | CGGATGGC | inactive: -0.0761
105 | GCGTTCGA | inactive: 0.00771
106 | ACATTTTA | inactive: 0.202
107 | CTAACTCA | inactive: -0.00933
108 | ATCGAACA | inactive: 0.212
109 | CTAGATTC | inactive: -0.0672
110 | CGTTTTAA | inactive: 0.0453
111 | ACCAAAGG | inactive: -0.0603
112 | CCCAATGC | inactive: -0.155
113 | CCCTGGTC | inactive: -0.167
114 | ACCTGAAT | inactive: 0.156
115 | GTAATTTA | inactive: 0.144
116 | GCGCGGAC | inactive: -0.0723
117 | AGAACTTA | inactive: 0.0726
118 | AAACTAGA | inactive: 0.134
119 | CTCTACTC | inactive: -0.0791
120 | GTTAGAGA | inactive: -0.0316
121 | AATTCCCA | ≥ 0.0659
122 | ACCTAGGG | inactive: -0.195
123 | AGACCATG | inactive: 0.0878
124 | ATAGGTAC | inactive: 0.188
125 | CTTTCGAA | inactive: -0.134

Row | Sequence | PBM E-score
126 | TAAGAGAA | inactive: 0.0458
127 | GATGGCTA | inactive: 0.0327
128 | TGAACACA | inactive: 0.309
129 | AGTCATAG | inactive: -0.00854
130 | GATGGGCC | inactive: -0.256
131 | ATAGTCCG | inactive: 0.00249
132 | GATGAACC | inactive: 0.00393
133 | CGTCAGCC | inactive: -0.0882
134 | ATAATACA | inactive: 0.304
135 | CGAACAAC | ≥ 0.298
136 | ATACTACC | inactive: 0.0922
137 | AAAGACAC | inactive: 0.195
138 | ATGTAACG | active: 0.347
139 | CAGCCAAG | inactive: -0.0679
140 | AACTGGGG | inactive: -0.165
141 | AGTTCTAG | inactive: -0.0919
142 | AGGCTAGC | inactive: -0.106
143 | AACTTCAC | inactive: 0.0481
144 | CCCTTTCG | inactive: -0.0818
145 | CCCCCTAA | inactive: -0.267
146 | TCACTACA | inactive: 0.203
147 | CCACATAG | inactive: -0.12
148 | AAAGTCAC | inactive: 0.0854
149 | AAAGGATG | inactive: 0.0452
150 | TACCAATA | inactive: 0.13

Row | Sequence | PBM E-score
151 | GAGTTCAC | ≥ 0.0472
152 | AAAAAGCA | inactive: 0.023
153 | AGTATTGG | inactive: 0.0192
154 | CAGGTATG | inactive: 0.09
155 | CGCTCGAC | inactive: -0.102
156 | CTCCTGAC | inactive: -0.0862
157 | TCGGATCA | inactive: 0.032
158 | GGACCGCC | inactive: -0.285
159 | ACCGTGCT | inactive: -0.0257
160 | AGAACGAC | inactive: 0.0755
161 | AAACGAAT | inactive: 0.0632
162 | CAGTAAGG | inactive: -0.0179
163 | CTTAGCGC | inactive: -0.0941
164 | TATTCAGA | inactive: 0.0798
165 | ATCGTTCC | inactive: -0.0486
166 | ACCCTTAG | inactive: -0.132
167 | AGCGTCTG | inactive: -0.09
168 | CACGGGTA | inactive: 0.0209
169 | CAAGGGAC | inactive: 0.00511
170 | AGATGGTA | inactive: 0.13
171 | ATATCACA | inactive: 0.198
172 | AAACGTAA | inactive: 0.115
173 | CGTGGCGC | inactive: -0.206
174 | AGTTACAT | active: 0.319
175 | GCGGGACA | inactive: -0.0364

Row | Sequence | PBM E-score
176 | CTGCTAAA | inactive: -0.00878
177 | TAGATTCA | inactive: 0.0428
178 | ACACGCGA | inactive: 0.262
179 | CTTATGTA | active: 0.345
180 | ATCCAGCC | inactive: -0.0544
181 | TAACGTAA | inactive: 0.176
182 | CCCGGACA | inactive: 0.107
183 | CGGACAGA | inactive: 0.0699
184 | GGTACGCA | inactive: 0.0341
185 | GTGCCGTA | inactive: -0.0637
186 | CTTTTAAC | inactive: -0.029
187 | GTGCGTCA | inactive: -0.0558
188 | CAACTAGC | inactive: 0.12
189 | AGAATCGA | inactive: -0.0466
190 | CGTATCAG | inactive: 0.0641
191 | CGGGTCAC | inactive: -0.222
192 | AAACGGTT | inactive: -0.0166
193 | ACGCCTAG | inactive: -0.0826
194 | GTCGGTCA | inactive: 0.0243
195 | ATTCAGAG | inactive: 0.0966
196 | CCGAACTA | inactive: 0.00691
197 | CACGAGAC | inactive: 0.0192
198 | AACTTGGT | inactive: 0.0786
199 | AGACTGAA | inactive: 0.0149
200 | ACCTCCAT | inactive: -0.0592

Row | Sequence | PBM E-score
201 | CCCGTTCG | inactive: -0.0961
202 | AAAGTCCG | inactive: -0.105
203 | GTTAGAAA | inactive: 0.123
204 | AAACAACC | inactive: 0.202
205 | AAAGAGTT | inactive: -0.00574
206 | CCACGGGG | inactive: -0.228
207 | CCGCCAAC | inactive: -0.159
208 | GTGAGAAA | inactive: -0.0587
209 | ATTTCTGC | inactive: 0.0368
210 | CTTAAGCA | inactive: -0.0816
211 | AGAGAGGA | inactive: -0.0741
212 | CCCGCATA | inactive: -0.0221
213 | GCCGTACA | inactive: 0.116
214 | CAGATAAC | inactive: 0.075
215 | ACTCGTGG | inactive: -0.0419
216 | CTCTCAGA | inactive: -0.116
217 | AATATGAC | inactive: 0.174
218 | CCTATTAA | inactive: -0.0158
219 | ACCGTTAG | inactive: 0.0138
220 | AGCCAATG | inactive: -0.0223
221 | GTGTCGTA | inactive: 0.252
222 | AATTATTG | inactive: 0.086
223 | CCCTGCCG | inactive: -0.256
